Laboratory results as given in PubChem BioAssay AID2060893 (Molecular Pharmacology Branch, DTP, NCI, 2025).
Some entries of the source have several records that differ or are many. This list holds those alone. An entry can have further records. Values that stand side by side are repeats in other runs, samples, wells, individuals or studies. One block for each compound: values may come before it.

Tested on: K86415-001-R-J1-PDC complex spheroids, viability
Assay: Anticancer human tumor K86415-001-R-J1-PDC patient-derived lung adenocarcinoma cell line growth inhibition [RAS]
Conditions: for IC50: compound alone; for viability, T/C: stronger effect = lower value
Source text: RAS pathway inhibitors in Combinations in Complex Spheroids
A high-throughput screen of multi-cell type tumor spheroids was designed to identify active combinations of RAS pathway inhibitors and targeted small molecules. Complex spheroids include a stromal component modeled by human endothelial cells (HUVEC) and fibroblasts modeled by human mesenchymal stem cells (MSCs). The concentration ranges selected for each drug and investigational agent were based upon clinically achievable concentrations if the clinical Cmax of the agent was known.
Compounds. The drugs and investigational agents: abemaciclib (NSC768073), cobimetinib (NSC768068), divarasib (GDC6063, NSC841802), docetaxel (NSC628503), GDC-1971 (RLY-1971, NSC841576), gemcitabine (NSC613327), inavolisib (NSC800729), ipatasertib (NSC767898), KB-0742 (NSC834161), MRTX-1133 (NSC836407), osimertinib (NSC779217), RMC-4630 (NSC839698), RMC-6236 (NSC851965), RMC-6291 (NSC852671), Ro-3306 (NSC812927), sapanisertib (NSC764658), SN-38 (NSC673596), staurosporine (NSC755774), SY5609 (NSC837396), and tovorafenib (DAY101, NSC766906), were obtained from the National Cancer Institute (NCI) Developmental Therapeutics Program Chemical Repository. The FDA-approved anticancer drug set is available from the NCI Developmental Therapeutics Program. […] The stock solutions were prepared in dimethyl sulfoxide (DMSO, Sigma-Aldrich, St. Louis, MO, cat. D2650) at 800-fold the tested concentration and stored at -70 degrees C prior to their use. All drugs and investigational agents were tested over a range starting from a high concentration at or near the clinical Cmax and decreasing in half-log increments. If the clinical Cmax for an agent had not been determined, the highest concentration tested was 10 microM.
Cell Culture. All cells were maintained in an incubator at 37 degrees C and 5% CO2 with 95% humidity. The PDC lines were cultured according to standard operating procedures established by the NCI PDMR. All PDCs were thawed and cultured in Matrigel-coated flasks prepared with a working solution of 1X Ham's F-12 nutrient mix, without supplementation (Invitrogen, Waltham, MA, cat. 11765054), 100 U/mL penicillin-streptomycin (Invitrogen, cat. 15140122), and 2.5% Matrigel (Corning Inc., Corning, NY, cat. 354248) for the first three passages. […]
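Note: spheroids exposed to agents for seven days before readout.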

IC50: 4.03 µM, 4.77 µM, 9.35 µM, > 10 µM
SMILES: CC(C)NCC(C(=O)N1CCN(c2ncnc3c2C(C)CC3O)CC1)c1ccc(Cl)cc1 (centres undefined)
viability, T/C (compound alone 0.1 µM): 124, 96.8, 110, 104%

IC50 (run of 07/09/2024): < 0.949 nM, 1.09 nM, 1.12 nM, 0.961 nM
SMILES: CCn1c(-c2cc(N3CCN(C)CC3)cnc2C(C)OC)c2c3cc(ccc31)-c1csc(n1)CC(NC(=O)C1CC1C)C(=O)N1CCCC(N1)C(=O)OCC(C)(C)C2 (centres undefined)

SMILES: CC1(O)CCCC1n1c(=O)c(C(F)F)cc2cnc(NC3CCN(S(C)(=O)=O)CC3)nc21 (centres undefined)
viability, T/C (compound alone 3.16 µM): 75, 86.2, 70.1, 96.9%
